Test results: the DeepSol protein solubility set

Experiment: soluble on expression in E. coli; label from the status in PepcDB or PDB records

Sequence: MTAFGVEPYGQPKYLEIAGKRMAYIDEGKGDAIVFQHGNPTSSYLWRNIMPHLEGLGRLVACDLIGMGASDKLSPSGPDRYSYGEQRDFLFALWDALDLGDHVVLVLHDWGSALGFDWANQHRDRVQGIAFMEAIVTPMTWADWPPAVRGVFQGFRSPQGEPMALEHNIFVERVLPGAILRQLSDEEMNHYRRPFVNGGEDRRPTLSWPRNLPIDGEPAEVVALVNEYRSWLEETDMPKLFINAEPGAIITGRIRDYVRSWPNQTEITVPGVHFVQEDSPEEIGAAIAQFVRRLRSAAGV
- soluble on expression in E. coli: soluble
